According to publication PMC7948471, “RSU-1 interaction with prohibitin-2 links cell–extracellular matrix detachment to downregulation of ERK signaling” (The Journal of Biological Chemistry, 2020):
No constants are given. Whether binding was seen depends on the method and setting. For some assays here: Binding seen in cells or lysates may run through a third protein. Some binding calls cover weakened binding; strength is not graded here. For some assays here: Tags and fused reporters may be left off the sequences shown. Values belong to the molecule of their own block, whether it stands above or below them.

By UniProt entry, the sequences of proteins in these tests, tags left out. Where a name states a change or a piece, a line headed by the entry shows the natural chain unless it says otherwise. Chains listed by the source or under a name are the forms on record and can include a tag or linker. Residues count along the entry.
UniProt Q99623: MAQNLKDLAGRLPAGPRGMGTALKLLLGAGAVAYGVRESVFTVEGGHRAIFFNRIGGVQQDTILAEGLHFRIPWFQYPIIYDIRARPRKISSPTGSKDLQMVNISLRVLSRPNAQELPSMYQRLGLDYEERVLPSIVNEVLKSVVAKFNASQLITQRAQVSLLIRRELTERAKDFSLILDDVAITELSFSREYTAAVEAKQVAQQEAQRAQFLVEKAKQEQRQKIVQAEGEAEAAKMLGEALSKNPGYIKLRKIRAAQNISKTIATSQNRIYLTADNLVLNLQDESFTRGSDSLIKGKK
MBP-tagged PHB2 N-terminal region (amino acids 1–152): residues 1-152 of Q99623
GFP-PHB2 fragment (150–206): residues 150-206 of Q99623
MBP-tagged PHB2 C-terminal region (amino acids 201–299): residues 201-299 of Q99623

Tests used:
[1] = target: T1, RSU1 (Ras Suppressor 1), full-length, in pGBKT7 (yeast two-hybrid bait) (human) (UniProt Q15404); experiment: two-hybrid; yeast two-hybrid screen; pGBKT7/RSU1 as bait against a human keratinocyte … cDNA library
T1 sequence: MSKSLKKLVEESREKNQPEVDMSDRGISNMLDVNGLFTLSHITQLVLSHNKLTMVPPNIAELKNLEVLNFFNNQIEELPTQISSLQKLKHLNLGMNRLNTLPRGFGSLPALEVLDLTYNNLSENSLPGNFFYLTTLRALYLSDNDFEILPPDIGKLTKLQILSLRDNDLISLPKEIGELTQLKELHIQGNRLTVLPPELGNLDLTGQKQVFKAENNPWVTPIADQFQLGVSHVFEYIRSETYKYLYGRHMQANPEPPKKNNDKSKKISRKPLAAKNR

[2] = target: PHB2-Ruby2 (Ruby2-N1 vector carrying PHB2) (human) (UniProt Q99623); experiment: FRET or BRET; TCSPC-FLIM of the Clover donor in fixed HT1080 cells adhered to fibronectin (10 μg/ml) for 5 h; control Ruby2 alone (lifetime of RSU1-Clover 2.226 ± 0.020 ns, n = 33)
[3] = target: GFP-PHB2 fragment (150–206) (human) (UniProt Q99623); experiment: co-IP; HT1080 cells transfected with GFP or GFP-PHB2 fragment (150–206) for 24 h; immunoprecipitation with anti-GFP antibodies; Western blot with anti-RSU1 and anti-GFP
[4] = target: PHB2, endogenous in HT1080 cells (human (endogenous in HT1080)) (UniProt Q99623); experiment: co-IP; endogenous proteins of HT1080 cells; lysis buffer 10 mM Tris/HCl pH 7.6, 500 mM NaCl, 1.75% n-octyl-β-D-glucopyranoside; agarose beads with anti-RSU1 or anti-PHB2 antibody, control IgG; also cells adhered to fibronectin (10 μg/ml) or kept in suspension for 5 h
PHB2-Clover (human) = PHB2-Clover (human) (UniProt Q99623); experiment: FRET or BRET; TCSPC-FLIM of the Clover donor in fixed HT1080 cells kept in suspension for 5 h; control Ruby2 alone (lifetime of RSU1-Clover 2.315 ± 0.019 ns, n = 44)
[5] = target: MBP-tagged PHB2 C-terminal region (amino acids 201–299) (human) (UniProt Q99623); experiment: pull-down; GST-RSU1 (10 μg/ml) with amylose beads holding MBP-tagged full-length or deletion forms of PHB2 or MBP; 1% Triton X-100, 10 mM Tris, 100 mM NaH2PO4, pH 8.0; 4 °C, 3 h; Western blot with anti-RSU1; both purified
[6] = target: MBP-tagged PHB2 N-terminal region (amino acids 1–152) (human) (UniProt Q99623); experiment: as above
[7] = target: GST–PHB2 fusion protein (human) (UniProt Q99623); experiment: pull-down; GST-PHB2 or GST on glutathione-Sepharose 4B beads with precleared HeLa lysate (1% TX-100, 50 mM Hepes pH 7.1, 150 mM NaCl), 4 °C overnight; Western blot with anti-RSU1; only the target purified

binding [2]: binds weakly
B1: RSU1-Clover (mClover-N1 vector carrying RSU1) (protein, UniProt Q15404 1-277)
chain: MSKSLKKLVEESREKNQPEVDMSDRGISNMLDVNGLFTLSHITQLVLSHNKLTMVPPNIAELKNLEVLNFFNNQIEELPTQISSLQKLKHLNLGMNRLNTLPRGFGSLPALEVLDLTYNNLSENSLPGNFFYLTTLRALYLSDNDFEILPPDIGKLTKLQILSLRDNDLISLPKEIGELTQLKELHIQGNRLTVLPPELGNLDLTGQKQVFKAENNPWVTPIADQFQLGVSHVFEYIRSETYKYLYGRHMQANPEPPKKNNDKSKKISRKPLAAKNR

binding [3]: binds
binding [4]: binds
B2: RSU1, endogenous in HT1080 cells (protein, UniProt Q15404 1-277)
chain: MSKSLKKLVEESREKNQPEVDMSDRGISNMLDVNGLFTLSHITQLVLSHNKLTMVPPNIAELKNLEVLNFFNNQIEELPTQISSLQKLKHLNLGMNRLNTLPRGFGSLPALEVLDLTYNNLSENSLPGNFFYLTTLRALYLSDNDFEILPPDIGKLTKLQILSLRDNDLISLPKEIGELTQLKELHIQGNRLTVLPPELGNLDLTGQKQVFKAENNPWVTPIADQFQLGVSHVFEYIRSETYKYLYGRHMQANPEPPKKNNDKSKKISRKPLAAKNR

binding (PHB2-Clover (human)): binds
B3: RSU1-Ruby2 (protein, UniProt Q15404 1-277)
chain: MSKSLKKLVEESREKNQPEVDMSDRGISNMLDVNGLFTLSHITQLVLSHNKLTMVPPNIAELKNLEVLNFFNNQIEELPTQISSLQKLKHLNLGMNRLNTLPRGFGSLPALEVLDLTYNNLSENSLPGNFFYLTTLRALYLSDNDFEILPPDIGKLTKLQILSLRDNDLISLPKEIGELTQLKELHIQGNRLTVLPPELGNLDLTGQKQVFKAENNPWVTPIADQFQLGVSHVFEYIRSETYKYLYGRHMQANPEPPKKNNDKSKKISRKPLAAKNR

Second part, the molecule before the results:

Molecule: PHB2 C-terminal fragment (residues 101–299), prey clone of the yeast two-hybrid library (from UniProt Q99623 101-299) (domain or fragment)
binding [1]: binds

B4: GST-tagged RSU1 (full length) (protein, UniProt Q15404 1-277)
chain: MSKSLKKLVEESREKNQPEVDMSDRGISNMLDVNGLFTLSHITQLVLSHNKLTMVPPNIAELKNLEVLNFFNNQIEELPTQISSLQKLKHLNLGMNRLNTLPRGFGSLPALEVLDLTYNNLSENSLPGNFFYLTTLRALYLSDNDFEILPPDIGKLTKLQILSLRDNDLISLPKEIGELTQLKELHIQGNRLTVLPPELGNLDLTGQKQVFKAENNPWVTPIADQFQLGVSHVFEYIRSETYKYLYGRHMQANPEPPKKNNDKSKKISRKPLAAKNR
binding [5]: no binding (tested: 10 μg/ml)
binding [6]: no binding (tested: 10 μg/ml)

B5: RSU1, endogenous in HeLa cells (protein, UniProt Q15404 1-277)
chain: MSKSLKKLVEESREKNQPEVDMSDRGISNMLDVNGLFTLSHITQLVLSHNKLTMVPPNIAELKNLEVLNFFNNQIEELPTQISSLQKLKHLNLGMNRLNTLPRGFGSLPALEVLDLTYNNLSENSLPGNFFYLTTLRALYLSDNDFEILPPDIGKLTKLQILSLRDNDLISLPKEIGELTQLKELHIQGNRLTVLPPELGNLDLTGQKQVFKAENNPWVTPIADQFQLGVSHVFEYIRSETYKYLYGRHMQANPEPPKKNNDKSKKISRKPLAAKNR
binding [7]: binds
